{"source": "the supplement of paper PMC8728848", "binders": {"B1": {"name": "Als3-41 (Candida albicans) (protein)", "chain": "KTITGVFNSFNSLTWSNAATYNYKGPGTPTWNAVLGWSLDGTSASPGDTFTLNMPCVFKFTTSQTSVDLTAHGVKYATCQFQAGEEFMTFSTLTCTVSNTLTPSIKALGTVTLPLAFNVGGTGSSVDLEDSKCFTAGTNTVTFNDGGKKISINVDFERSNVDPKGYLTDSRVIPSLNKVSTLFVAPQCANGYTSGTMGFANTYGDVQIDCSNIHVGITKGLNDWNYPVSSESFSYTKTCSSNGIFITYKNVPAGYRPFVDAYISATDVNSYTLSYANEYTCAGGYWQRAPFTLRWTGYRNSDAGSNGIVIVATTRTVTDSTTAVTTLPFDPNRDKTKTIEILKPIPTTTITTSYVGVTTSYLTKTAPIGETATVIVD"}}, "test_in_all_cases": "glycan array binding signal (z-score within array); higher = stronger binding", "details_in_all_cases": "glycan notation: IUPAC condensed, linker removed", "key": {"[1]": {"target": "Neu5Ac(a2-3)Gal(b1-4)GlcNAc(b1-2)[Neu5Ac(a2-3)Gal(b1-4)GlcNAc(b1-4)]Man(a1-3)[GlcNAc(b1-4)][Neu5Ac(a2-3)Gal(b1-4)GlcNAc(b1-2)[Neu5Ac(a2-3)Gal(b1-4)GlcNAc(b1-6)]Man(a1-6)]Man(b1-4)GlcNAc(b1-4)GlcNAc", "outline": "(§1)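 Columns mapping to the same glycan were averaged after glycan names were converted to IUPAC-condensed notation. The data come from 3228 arrays in the Consortium for Functional Glycomics database, limited to those with an available protein sequence. Binding is reported as a within-array Z-score averaged across arrays of one protein sequence and across linkers.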"}, "[2]": {"target": "Neu5Ac(a2-3)Gal(b1-4)GlcNAc(b1-2)[Neu5Ac(a2-3)Gal(b1-4)GlcNAc(b1-4)]Man(a1-3)[GlcNAc(b1-4)][Neu5Ac(a2-3)Gal(b1-4)GlcNAc(b1-4)Man(a1-6)]Man(b1-4)GlcNAc(b1-4)GlcNAc", "outline": "as §1"}, "[3]": {"target": "Neu5Ac(a2-3)Gal(b1-4)GlcNAc(b1-2)[Neu5Ac(a2-3)Gal(b1-4)GlcNAc(b1-6)]Man(a1-6)[Neu5Ac(a2-3)Gal(b1-4)GlcNAc(b1-2)Man(a1-3)]Man(b1-4)GlcNAc(b1-4)GlcNAc", "outline": "as §1"}, "[4]": {"target": "Neu5Ac(a2-3)Gal(b1-4)GlcNAc(b1-2)[Neu5Ac(a2-3)Gal(b1-4)GlcNAc(b1-6)]Man(a1-6)[Neu5Ac(a2-3)Gal(b1-4)GlcNAc(b1-2)Man(a1-3)][GlcNAc(b1-4)]Man(b1-4)GlcNAc(b1-4)GlcNAc", "outline": "as §1"}, "[5]": {"target": "Neu5Ac(a2-3)Gal(b1-4)GlcNAc(b1-3)Gal", "outline": "as §1"}, "[6]": {"target": "Neu5Ac(a2-3)Gal(b1-4)GlcNAc(b1-3)Gal(b1-3)GlcNAc", "outline": "as §1"}, "[7]": {"target": "Neu5Ac(a2-3)Gal(b1-4)GlcNAc(b1-3)Gal(b1-4)GlcNAc", "outline": "as §1"}, "[8]": {"target": "Neu5Ac(a2-3)Gal(b1-4)GlcNAc(b1-3)Gal(b1-4)GlcNAc(b1-2)Man(a1-3)[Neu5Ac(a2-3)Gal(b1-4)GlcNAc(b1-3)Gal(b1-4)GlcNAc(b1-2)Man(a1-6)]Man(b1-4)GlcNAc(b1-4)GlcNAc", "outline": "as §1"}, "[9]": {"target": "Neu5Ac(a2-3)Gal(b1-4)GlcNAc(b1-3)Gal(b1-4)GlcNAc(b1-3)Gal(b1-4)GlcNAc", "outline": "as §1"}, "[10]": {"target": "Neu5Ac(a2-3)Gal(b1-4)GlcNAc(b1-3)Gal(b1-4)GlcNAc(b1-3)Gal(b1-4)GlcNAc(b1-2)Man(a1-3)[Neu5Ac(a2-3)Gal(b1-4)GlcNAc(b1-3)Gal(b1-4)GlcNAc(b1-3)Gal(b1-4)GlcNAc(b1-2)Man(a1-6)]GalNAc", "outline": "as §1"}, "[11]": {"target": "Neu5Ac(a2-3)Gal(b1-4)GlcNAc(b1-3)Gal(b1-4)GlcNAc(b1-3)GalNAc", "outline": "as §1"}, "[12]": {"target": "Neu5Ac(a2-3)Gal(b1-4)GlcNAc(b1-3)Gal(b1-4)GlcNAc(b1-3)[Neu5Ac(a2-3)Gal(b1-4)GlcNAc(b1-3)Gal(b1-4)GlcNAc(b1-6)]GalNAc", "outline": "as §1"}, "[13]": {"target": "Neu5Ac(a2-3)Gal(b1-4)GlcNAc(b1-3)Gal(b1-4)GlcNAc(b1-6)[Gal(b1-3)]GalNAc", "outline": "as §1"}, "[14]": {"target": "Neu5Ac(a2-3)Gal(b1-4)GlcNAc(b1-3)Gal(b1-4)[Fuc(a1-3)]GlcNAc", "outline": "as §1"}, "[15]": {"target": "Neu5Ac(a2-3)Gal(b1-4)GlcNAc(b1-3)GalNAc", "outline": "as §1"}, "[16]": {"target": "Neu5Ac(a2-3)Gal(b1-4)GlcNAc(b1-3)[Neu5Ac(a2-3)Gal(b1-4)GlcNAc(b1-6)]GalNAc", "outline": "as §1"}, "[17]": {"target": "Neu5Ac(a2-3)Gal(b1-4)GlcNAc(b1-6)GalNAc", "outline": "as §1"}, "[18]": {"target": "Neu5Ac(a2-3)Gal(b1-4)GlcNAc(b1-6)[Gal(b1-3)]GalNAc", "outline": "as §1"}, "[19]": {"target": "Neu5Ac(a2-3)Gal(b1-4)GlcNAc(b1-6)[Neu5Ac(a2-3)Gal(b1-3)]GalNAc", "outline": "as §1"}, "[20]": {"target": "Neu5Ac(a2-3)Gal(b1-4)GlcNAc6S", "outline": "as §1"}, "[21]": {"target": "Neu5Ac(a2-3)Gal(b1-4)[Fuc(a1-3)]GlcNAc", "outline": "as §1"}, "[22]": {"target": "Neu5Ac(a2-3)Gal(b1-4)[Fuc(a1-3)]GlcNAc(b1-2)Man", "outline": "as §1"}, "[23]": {"target": "Neu5Ac(a2-3)Gal(b1-4)[Fuc(a1-3)]GlcNAc(b1-3)Gal", "outline": "as §1"}, "[24]": {"target": "Neu5Ac(a2-3)Gal(b1-4)[Fuc(a1-3)]GlcNAc(b1-3)Gal(b1-4)GlcNAc", "outline": "as §1"}, "[25]": {"target": "Neu5Ac(a2-3)Gal(b1-4)[Fuc(a1-3)]GlcNAc(b1-3)Gal(b1-4)[Fuc(a1-3)]GlcNAc(b1-3)Gal(b1-4)[Fuc(a1-3)]GlcNAc", "outline": "as §1"}, "[26]": {"target": "Neu5Ac(a2-3)Gal(b1-4)[Fuc(a1-3)]GlcNAc(b1-3)GalNAc", "outline": "as §1"}, "[27]": {"target": "Neu5Ac(a2-3)Gal(b1-4)[Fuc(a1-3)]GlcNAc(b1-6)[Gal(b1-3)]GalNAc", "outline": "as §1"}, "[28]": {"target": "Neu5Ac(a2-3)Gal(b1-4)[Fuc(a1-3)]GlcNAc(b1-6)[Neu5Ac(a2-3)Gal(b1-3)]GalNAc", "outline": "as §1"}, "[29]": {"target": "Neu5Ac(a2-3)Gal(b1-4)[Fuc(a1-3)]GlcNAc6S", "outline": "as §1"}, "[30]": {"target": "Neu5Ac(a2-3)Gal6S(b1-4)GlcNAc", "outline": "as §1"}, "[31]": {"target": "Neu5Ac(a2-3)Gal6S(b1-4)[Fuc(a1-3)]GlcNAc", "outline": "as §1"}, "Neu5Ac(a2-3)GalNAc": {"target": "Neu5Ac(a2-3)GalNAc", "outline": "as §1"}, "[32]": {"target": "Neu5Ac(a2-3)GalNAc(b1-4)GlcNAc", "outline": "as §1"}, "[33]": {"target": "Neu5Ac(a2-3)[GalNAc(b1-4)]Gal(b1-4)Glc", "outline": "as §1"}, "[34]": {"target": "Neu5Ac(a2-3)[GalNAc(b1-4)]Gal(b1-4)GlcNAc", "outline": "as §1"}, "[35]": {"target": "Neu5Ac(a2-3)[GalNAc(b1-4)]Gal(b1-4)GlcNAc(b1-3)GalNAc", "outline": "as §1"}, "[36]": {"target": "Neu5Ac(a2-3)[Neu5Ac(a2-6)]GalNAc", "outline": "as §1"}}, "note": "The list shows a part of the results.", "data": [{"binder": "B1", "values": [{"measurement": "glycan array binding signal (z-score)", "setting": "[1]", "result": -0.312}, {"measurement": "glycan array binding signal (z-score)", "setting": "[2]", "result": -0.395}, {"measurement": "glycan array binding signal (z-score)", "setting": "[3]", "result": 0.233}, {"measurement": "glycan array binding signal (z-score)", "setting": "[4]", "result": -0.315}, {"measurement": "glycan array binding signal (z-score)", "setting": "[5]", "result": -0.188}, {"measurement": "glycan array binding signal (z-score)", "setting": "[6]", "result": -0.341}, {"measurement": "glycan array binding signal (z-score)", "setting": "[7]", "result": -0.285}, {"measurement": "glycan array binding signal (z-score)", "setting": "[8]", "result": 0.564}, {"measurement": "glycan array binding signal (z-score)", "setting": "[9]", "result": -0.239}, {"measurement": "glycan array binding signal (z-score)", "setting": "[10]", "result": 6.54}, {"measurement": "glycan array binding signal (z-score)", "setting": "[11]", "result": -0.004}, {"measurement": "glycan array binding signal (z-score)", "setting": "[12]", "result": -0.053}, {"measurement": "glycan array binding signal (z-score)", "setting": "[13]", "result": -0.002}, {"measurement": "glycan array binding signal (z-score)", "setting": "[14]", "result": -0.359}, {"measurement": "glycan array binding signal (z-score)", "setting": "[15]", "result": 0.154}, {"measurement": "glycan array binding signal (z-score)", "setting": "[16]", "result": 0.327}, {"measurement": "glycan array binding signal (z-score)", "setting": "[17]", "result": -0.184}, {"measurement": "glycan array binding signal (z-score)", "setting": "[18]", "result": -0.346}, {"measurement": "glycan array binding signal (z-score)", "setting": "[19]", "result": -0.35}, {"measurement": "glycan array binding signal (z-score)", "setting": "[20]", "result": -0.33}, {"measurement": "glycan array binding signal (z-score)", "setting": "[21]", "result": -0.27}, {"measurement": "glycan array binding signal (z-score)", "setting": "[22]", "result": -0.28}, {"measurement": "glycan array binding signal (z-score)", "setting": "[23]", "result": -0.324}, {"measurement": "glycan array binding signal (z-score)", "setting": "[24]", "result": 0.101}, {"measurement": "glycan array binding signal (z-score)", "setting": "[25]", "result": -0.286}, {"measurement": "glycan array binding signal (z-score)", "setting": "[26]", "result": 0.574}, {"measurement": "glycan array binding signal (z-score)", "setting": "[27]", "result": 0.897}, {"measurement": "glycan array binding signal (z-score)", "setting": "[28]", "result": 0.022}, {"measurement": "glycan array binding signal (z-score)", "setting": "[29]", "result": -0.33}, {"measurement": "glycan array binding signal (z-score)", "setting": "[30]", "result": -0.205}, {"measurement": "glycan array binding signal (z-score)", "setting": "[31]", "result": -0.331}, {"measurement": "glycan array binding signal (z-score)", "setting": "Neu5Ac(a2-3)GalNAc", "result": -0.215}, {"measurement": "glycan array binding signal (z-score)", "setting": "[32]", "result": -0.224}, {"measurement": "glycan array binding signal (z-score)", "setting": "[33]", "result": -0.266}, {"measurement": "glycan array binding signal (z-score)", "setting": "[34]", "result": 0.084}, {"measurement": "glycan array binding signal (z-score)", "setting": "[35]", "result": 0.031}, {"measurement": "glycan array binding signal (z-score)", "setting": "[36]", "result": -0.318}]}]}
